Data published in the supplement of paper PMC11417369.
The other results are listed elsewhere or left out.

Each sequence was assayed on PfAP2-HC AP2 domain (GST-tagged) (assay: gcPBM binding intensity (ln(normalized median fluorescence intensity)); higher = stronger DNA binding).
In short: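 GST-tagged P. falciparum DNA-binding domains produced in E. coli were incubated for 1 h on an Agilent 4 × 180k array of primer-extended double-stranded 36-bp intergenic genomic probes with negative controls. Binding intensity is the highest Masliner-normalised natural-log median intensity across replicate spots of either probe orientation, with bound protein detected by Alexa488 anti-GST antibody at 488 nm.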

Sequence	gcPBM binding intensity (ln)
TATATATAATATAGTGCATGTAAAAAATAAACCATG [TGCATGCA_site932]	9.73
TATAAATTAAAACATTGTACATTTTTATTATTATGT [XGTACX_site579]	9.72
TATCTTACTTTTTGCACACACTAATATTATTGTTTA [CACACA_site4990]	10.1
ACAACTATTCATCATAGTACACGCATGATATATATA [XGTACX_site1539]	9.73
AAAATTAATATCTTGGTGCATTTTTTAATATTATTA [GTGCAC_site9638]	9.63
CAATTTATAAAGAAAACACACATATACATAAATACA [CACACA_site4829]	10.1
AATTATATATAAAGAAGTACTATTTCAAGGAGTTTT [XGTACX_site3837]	9.63
AATAAAACATCATCATGTACAAAATTCGTCTTTGTA [XGTACX_site4821]	9.61
TCAAATTTTCAACATTGTACATAAATGTATAAATAT [XGTACX_site6042]	9.47
CAAAATATATATGACACACACAAAAAAAGTATATTA [CACACA_site1589]	10.1
ATGTCACAATTTTTCACACACAAAATTTAAATACAT [CACACA_site5168]	9.9
TATTATTATATATATAGTACATAAAATATAAAAAAA [XGTACX_site2060]	9.63
TTTTTTAAATTATATTATAGCAAATAAATATTAAAA [CACACA_negctrl_site1655]	9.03
TTTTTTTTTTAAATGTGTCCTCATTATAATATATGT [XGTACX_site5331]	9.66
TAATTATGCGGACACACACACACACCCAACTAAAAA [CACACA_site5427]	10.9
GCATTATTATATATTTGTACATATTTTTTTTTAAAA [XGTACX_site5436]	9.68
TTTTTATTTTCATATGTGCACTTATATATATATATA	9.89
TTTTTATATAAGAAAAAATTATAACAATTTGTTAAT [XGTACX_negctrl_site422]	9.24
TATTGATATATATATATATATATATGTATATACTTA [GTGCAC_negctrl_site111]	9.78
TTCGCTGTTTTAATTAGTACTTATATATAATATTAT [XGTACX_site1149]	10
CTAAACCTTTTGAGCACACATATATATATATATATA [CACACA_site1782]	9.7
TTTTATGTTTTAAAATGTACGTGTCAATGAATAAGT [XGTACX_site6239]	9.51
AAATTTTAATTAGACTGTACACATTTTAGAATAATT [XGTACX_site4819]	9.41
TGAATATTCATATGCACACAAATTAATATACATAAT [CACACA_site442]	9.79
TATTATAGTCCGACTTTTTAATTTCTTTATTGTTTT [CACACA_negctrl_site1381]	9.7
